# The whole screen tested about 48,000 compounds, of which about 120 (0.25%) were called active. Another 4% or so got no clear call; they are omitted. Calls come from the whole dose curve; as a rule, active = well fitted activation curve with a large enough effect; inconclusive = small, poorly fitted or top-dose-only effect, or another doubt; inactive = no such curve, though single readings can be large or run the other way. The list shows a part of the results.
# Test: Primary qHTS for Identification of Small Molecule Activators of Huntingtin-Antisense Promoter Activity; note: nearly all actives have a fitted effect of over 55% in size
# Conditions: HEK293 HTT-AS promoter firefly luciferase reporter (activity 0% = vehicle and -100% = no light), 24 h; series mostly up to 57.5 µM; activity change, positive = activation: at the top concentration
# In short: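 HEK293 cells carrying firefly luciferase reporters were seeded at 2,500 per well in Opti-MEM and cultured for 24 h. They were then treated with compounds at up to 57.5 uM final for 24 h at 37 degrees C before Dual-Glo luminescence readout.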
row,SMILES,"activity change, positive = activation"
1,COc1cc(C(=O)NC(c2ccccc2Cl)c2cc(Cl)c3cccnc3c2O)cc(OC)c1OC (configuration not stated),inactive: -58.8%
2,COc1ccccc1C(=O)Nc1cccc(C(=O)OCc2cc(=O)n3c4c(sc3n2)CCCC4)c1,inactive: -33.6%
3,COc1ccc(NC(=O)CSc2oc(-c3ccco3)nc2S(=O)(=O)c2ccc(C)cc2)c(OC)c1,inactive: 0.83%
4,Cc1c(CNC(C)CCc2ccccc2)c(C(=O)O)c(C)n1Cc1ccc(F)cc1 (configuration not stated),inactive: -23.7%
5,CN(C)S(=O)(=O)c1ccc2c(c1)N(CC(=O)Nc1cccc(C(F)(F)F)c1)C(=O)CS2,inactive: -17%
6,Cc1onc(-c2ccccc2Cl)c1C(=O)Oc1ccccc1F,inactive: -25.4%
7,CC(C)(C)OC(=O)N1CCC(N2CCN(Cc3ccccc3)C(=O)C2=O)CC1,inactive: -1.74%
8,CCCCCCCCCCCCc1ccc(S(=O)(=O)Nc2nncs2)cc1,inactive: -1.16%
9,CCOC(=O)c1ccccc1NC(=O)NCc1c(-n2cccc2)sc2c1CCCC2,inactive: -6.05%
10,CCOc1ccc(NC(=O)C(CC(C)C)N2Cc3ccccc3C2=O)cc1 (configuration not stated),inactive: -5.81%
11,CCN(CC)CCOC(=O)C(c1ccccc1)c1ccccc1,inactive: -15%
12,Cc1csc2nc(COC(=O)c3cccc(NC(=O)COc4ccccc4Cl)c3)cc(=O)n12,inactive: -15%
13,OC(CCCN1CCCCC1)(c1ccccc1)c1ccccc1,inactive: -15.2%
14,COCCCNC(=O)c1nn(C)c2c1CS(=O)(=O)c1ccccc1-2,inactive: -13.4%
15,CCc1cccc(NC(=O)Cc2nc(-c3ccc(OC)cc3)no2)c1,inactive: -17.4%
16,COc1ccc(CNC(=O)CC2N=C3c4ccccc4N=C(SCC(=O)Nc4ccc(C(C)C)cc4)N3C2=O)cc1 (configuration not stated),inactive: 1.98%
17,COCc1cc(C)nc2sc3c(c12)NC(c1ccccc1C(=O)O)N(c1cccc(C(F)(F)F)c1)C3=O (configuration not stated),inactive: 6.01%
18,Cc1ccc(S(=O)(=O)c2nc(-c3cccc(Br)c3)oc2N2CCCCCC2)cc1,inactive: 6.13%
19,COc1cc([N+](=O)[O-])ccc1NC(=O)c1nc2ccccc2n(C)c1=O,inactive: 3.03%
20,O=C(CSc1nnc2[nH]c(=O)cc(-c3ccccc3)n12)Nc1ccc(OC(F)(F)F)cc1,inactive: 23.3%
21,COc1ccccc1NC(=O)CSc1oc(-c2ccco2)nc1S(=O)(=O)c1ccc(C)cc1,inactive: 2.31%
22,CCOc1ccc(NC(=O)c2oc3ccccc3c2NC(=O)C(C)(C)C)cc1,inactive: -4.27%
23,O=C(CC1N=C2c3ccccc3N=C(SCC(=O)Nc3ccc(F)cc3)N2C1=O)NCc1ccco1 (configuration not stated),inactive: -27.4%
24,CCOc1ccc2nc(N3CCCC(C(=O)Nc4ccc(OC)cc4)C3)sc2c1 (configuration not stated),inactive: 25.5%
25,COc1ccc(CCNC(=O)c2c(O)nc3ccccn3c2=O)cc1OC,inactive: -17.1%

row,SMILES,"activity change, positive = activation"
1,Cc1ccc(C(=O)Nc2nnc(S(=O)(=O)N(C)Cc3ccc(Cl)cc3)s2)cc1,inactive: -4.46%
2,COc1cc(Nc2ncc3c(n2)CCN(Cc2ccc(OC(C)C)c(OC)c2)C3)cc(OC)c1,inactive: -24.6%
3,CCc1nn2c(=O)cc(COC(=O)c3ccc(NC(=O)COc4ccccc4C)cc3)nc2s1,inactive: -9.05%
4,O=C(Nc1ccccc1-c1nc2ccccc2s1)c1ccc(F)cc1,inactive: 14.9%
5,Cc1ccc(CN2CCCn3nc(C(=O)NCc4ccc(N(C)C)cc4)cc3C2=O)cc1,inactive: -35.4%
6,COc1ccc(CCNc2nc3c(-c4cccc(C(F)(F)F)c4)nnn3c3ccccc23)cc1OC,inactive: 2.97%
7,O=C(CSc1nc2ccsc2c(=O)n1-c1ccc(Cl)cc1)NCc1ccc(Cl)cc1,inactive: -38.7%
8,CC1CCN(c2nc(-c3ccc(C(C)(C)C)cc3)nc3ccccc23)CC1,inactive: -44.1%
9,CCC(=O)N1CCc2cc(S(=O)(=O)NCCC(=O)Nc3ccc(CC)cc3)ccc21,inactive: -10.7%
10,CC(C)CNC(=O)Nc1cc(C(=O)NCc2ccc(C(C)C)cc2)ccc1N1CCCC1,inactive: -9.3%
11,CCOc1ccc(NC(=O)c2cc3cc(C)ccc3n2C)cc1,inactive: 1.38%
12,CCOC(=O)c1sc2ncn(CC(=O)Nc3cc(Cl)ccc3C)c(=O)c2c1C,inactive: 9.94%
13,CCOC(=O)c1cc2c(=O)n3ccccc3nc2n(CC2CCCO2)c1=NC(=O)c1ccccc1Br (configuration not stated),inactive: 15.6%
14,CC(=O)c1ccc(N2CCN(C(=O)c3cc(S(=O)(=O)N4CCCCCC4)cn3C)CC2)cc1,inactive: -20%
15,Cc1cccc(NC(=O)CSc2ccc(-c3sc(-c4ccccc4)nc3C)nn2)c1C,inactive: -4.5%
16,CC(=O)Nc1cccc(NC(=O)CSc2nccn2Cc2ccc3c(c2)OCO3)c1,inactive: -12.2%
17,Cc1cc(C(=O)Nc2c(C)cccc2C)n(-c2ccccc2)n1,inactive: -12%
18,COCCCNC(=O)c1ccc(Cn2c(SCc3ccc(F)cc3)nc3cccnc32)cc1,inactive: 8.33%
19,O=C(OCc1cc(=O)n2nc(-c3cccs3)sc2n1)c1cccc(F)c1,inactive: 3.74%
20,CC(C)CCN(C(=O)Nc1ccc(Cl)c(Cl)c1)C1CCN(C(C)C)CC1,inactive: -20.1%
21,O=C(c1noc2c1CCCCC2)N1CCN(c2cccc(Cl)c2)CC1,inactive: -21.7%
22,Cc1ccc(NC(=O)N2CC3CCCN3c3ccccc32)cc1Cl (configuration not stated),inactive: -18.2%
23,O=C(Cn1ncc2c3ccccc3n(Cc3ccccc3F)c2c1=O)N1CCCCCC1,inactive: 0.237%
24,CCN1CCN(c2nnc(-n3cccc3C(=O)NCc3ccccc3OC)s2)CC1,inactive: 5.93%
25,COc1ccc(NC(=O)C2CCN(C3=NS(=O)(=O)C(c4ccc(C)c(C)c4)=C3C)CC2)c(OC)c1,inactive: -18%

row,SMILES,"activity change, positive = activation"
1,Cc1ccccc1OC(=O)c1cc(-c2ccc3c(c2)OCCO3)on1,inactive: -3.01%
2,O=C(NCCc1csc(-c2cccc(F)c2)n1)C(=O)Nc1cc(F)ccc1F,inactive: 2.88%
3,COc1cccc(CNC(=O)C2CCN(S(=O)(=O)c3c(C)noc3/C=C/c3cccs3)CC2)c1,inactive: -24.4%
4,Cc1ccc(C)c(NC(=O)Cc2coc3cc(C)cc(C)c23)c1,inactive: -14%
5,CCc1ccccc1NC(=O)Cn1nnc2sc3c(c2c1=O)CCC(C(C)(C)C)C3 (configuration not stated),inactive: -29.9%
6,COc1ccc(C)cc1NS(=O)(=O)c1cnc(N)nc1,inactive: -8.27%
7,CCNC(=O)c1ccc(C)c(-n2c(C)nc3cccnc32)c1,inactive: 1.73%
8,Cc1ccc(NC(=O)Cn2c(=O)c3ccc(Cl)cc3n3nncc23)cc1,inactive: -8.88%
9,O=C(Cn1c(-c2cccs2)cc2ccccc21)N1CCN(c2ccc(Cl)cc2)CC1,inactive: -3.24%
10,CCOc1ccc(C2C(C(=O)Nc3ccccc3)=C(C)Nc3nc(-c4ccccc4)nn32)cc1OC (configuration not stated),inactive: -14.9%
11,COc1cccc(-c2csc(-c3c(N)c(C(=O)c4ccc5c(c4)OCO5)n4ccccc34)n2)c1,inactive: 5.65%
12,Cc1ccc(S(=O)(=O)NC(=O)NN2CCCCCC2)cc1,inactive: -13.1%
13,COc1ccc(-c2cn3c(n2)sc2cc(C(=O)NCCC4=CCCCC4)ccc23)cc1,inactive: 12.3%
14,COc1cccc(OC)c1C(=O)N[C@@H]1C(=O)N2[C@@H]1SC(C)(C)[C@@H]2C(=O)O,inactive: 0.497%
15,COc1ccc(OC)c(NC(=O)C(C)n2c(=O)cc(C)c3c(C)nn(-c4ccccc4)c32)c1 (configuration not stated),inactive: -1.41%
16,O=c1c2cnn(-c3ccc(F)cc3)c2ncn1Cc1ccccc1Cl,inactive: -7.99%
17,Cc1ccc(CNC(=O)c2c[nH]c3ccc(S(=O)(=O)N4CCOCC4)cc3c2=O)cc1,inactive: 1.58%
18,Cc1cc(C)n(CCc2nc3c4ccccc4nc(SCc4ccc(F)cc4)n3n2)n1,inactive: -11.1%
19,Cc1ccc(S(=O)(=O)c2nnn3c2nc(NC2CCCCCC2)c2sccc23)cc1C,inactive: -20.7%
20,CC(C)c1nn2c(=O)cc(COC(=O)C3CCCCC3)nc2s1,inactive: 15%
21,Cc1ccc(CN(Cc2ccco2)C(=O)c2ccccc2Br)o1,inactive: -36.4%
22,CCCOc1cccc(C2c3c(oc4ccc(F)cc4c3=O)C(=O)N2CCCN2CCOCC2)c1 (configuration not stated),inactive: -12.7%
23,CCCOc1ccc(-c2nonc2NC(=O)c2ccco2)cc1OCCC,inactive: -8.97%
24,Cc1nc(-c2ccc(S(=O)(=O)N3CCN(c4cccc(C(F)(F)F)c4)CC3)cc2)co1,inactive: -37.4%
25,CC1CCN(C(=O)c2cc3c(=O)n(C)c4cc(Cl)ccc4c3s2)CC1,inactive: -5.14%

row,SMILES,"activity change, positive = activation"
1,Cc1cc(Br)cc(C)c1NC(=O)c1sc2ncn(Cc3cccc(F)c3)c(=O)c2c1C,inactive: -15.6%
2,Cc1ccc(-n2cnc3cc(C(=O)NCCC4=CCCCC4)ccc32)c(C)c1,inactive: -12.4%
3,CCOC(=O)Cc1ccc(NC(=O)N(Cc2ccc(OC)cc2)C2CCN(C(C)=O)CC2)cc1,inactive: -11.2%
4,Cc1cccc(C)c1OCC(=O)N(Cc1ccccc1F)C1CCS(=O)(=O)C1 (configuration not stated),inactive: -21.1%
5,CCc1ccc(NC(=O)c2sc(-n3nc(C)c(CCC(C)C)c3C)nc2C)cc1,inactive: -11.5%
6,COc1ccc(C(=O)N2CC(=O)Nc3ccc(Br)cc3C2c2ccc(F)cc2)cc1OC (configuration not stated),inactive: -24.4%
7,COc1ccc(NC(=O)c2ccc3oc(=O)c(S(=O)(=O)c4ccc(F)cc4)cc3c2)cc1OC,inactive: -87.5%
8,O=C(NC1CC(=O)N(c2ccc(F)cc2)C1)C1CCCC1 (configuration not stated),inactive: -4.72%
9,Cc1ccc(Cc2cnc(NC(=O)c3ccc4c(c3)CC(c3ccccc3)OC4=O)s2)cc1 (configuration not stated),inactive: -20.7%
10,Cc1c(C(=O)Nc2ccc(F)cc2F)oc2c1-c1nn(Cc3c(F)cccc3Cl)cc1CC2,inactive: -20%
11,CC(=O)c1ccc(S(=O)(=O)Nc2ccc(-c3cn4c(C)csc4n3)cc2)cc1,inactive: -12.7%
12,COc1ccc(C)cc1NC(c1nnc(-c2ccccc2)o1)c1ccc(F)cc1Cl (configuration not stated),inactive: -13.8%
13,CCOC(=O)c1c(NC(=O)c2ccc(C)cc2)sc2c1CCCCC2,inactive: -11.6%
14,CCc1ccc(N2CC(c3nnc(NC(=O)c4ccco4)s3)CC2=O)cc1 (configuration not stated),inactive: -9.58%
15,N#Cc1ccccc1NC(=O)CSc1nc(-c2ccccc2)cc(C(F)(F)F)c1C#N,inactive: -2.58%
16,COc1cc(Cl)c(C)cc1NC(=O)c1cc(S(=O)(=O)N2CCCC2)ccc1F,inactive: -12.8%
17,Cc1ccc(Nc2nc(-c3ccccc3)nc3ccccc23)cc1,inactive: -28.5%
18,CCOc1ccc(C2=NC(c3ccncc3)=Nc3ccc(C)cc3N2)cc1OCC,inactive: -10.6%
19,CCCCCCCCCCCCCCCCOP(=O)([O-])OCC[N+](C)(C)C,inactive: -18.6%
20,COc1ccccc1-c1c(C)nn2c(-c3ccccc3)cc(-c3ccccc3)nc12,inactive: -10.2%
21,Cc1ccc(OCCn2cc(C(=O)c3cccs3)c3ccccc32)cc1,inactive: -22.8%
22,COc1cccc(/C=C/c2onc(C)c2S(=O)(=O)N2CCC(C(=O)N3CCCCC3)CC2)c1,inactive: -38.6%

# Source: PubChem BioAssay AID1508624 (National Center for Advancing Translational Sciences (NCATS), 2021)
